# Results taken from the supplement of paper PMC11417369.
# ± gives the standard deviation of the averaged measurements. The list shows a part of the results.
# System: PfAP2-I AP2 domain 3 (GST-tagged)
# Experiment: gcPBM binding intensity (ln(normalized median fluorescence intensity)); higher = stronger DNA binding
# Summary of the method: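 An Agilent 4 × 180k array of primer-extended double-stranded 36-bp intergenic genomic probes, with negative controls, was incubated for 1 h with GST-tagged P. falciparum DNA-binding domains expressed in E. coli. Alexa488 anti-GST antibody detected bound protein, scanned at 488 nm. Binding intensity is the highest Masliner-normalised natural-log median intensity across replicate spots of either probe orientation.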
row,Sequence,gcPBM binding intensity (ln)
1,TAAAAAAAAAAAAAAAGTACACACATACATATAAAT [XGTACX_site3752],7.88 ± 0.52
2,TATATAAATAGACACACACACACCTTATAATTACTA [CACACA_site7828],7.88 ± 0.25
3,AAAAAAAAAAAACACACACACACATACACATACATA [CACACA_site2858],7.98 ± 0.37
4,ATAATAATTAACCTATGTACATAGGAAAGTCATAAA [XGTACX_site4387],7.8 ± 0.45
5,GAAGAAAAATAAAAAGTGCAAAAAAAGTAAAAATTT [GTGCAC_site9897],10.12 ± 0.092
6,TATGTATGTGCTTGTGCGCACCGATAATATAGCCAA,9.94 ± 0.24
7,TGCTATAATTTATATACACACAAATATATACGCATA [CACACA_site4096],7.72 ± 0.5
8,TCTCATAGTAGACACACACACACACGCACATATATA [CACACA_site6916],8.2 ± 0.51
9,ACATAAGACACAAATACACACAAAAATATGTAACAA [CACACA_site7836],8 ± 0.22
10,TTTTATGAAAAGTATTGTACGTATAATTTATATGTA [XGTACX_site1639],7.86
11,ACAAATACAAAAAAAGGTACACACATAATATATTTA [XGTACX_site5515],7.85 ± 0.16
12,AATATAAATACTCCTACACACATATATATATATATA [CACACA_site3010],9.32 ± 0.35
13,GACACAAAAAAATAATAATAATAATAATAATAAATA [XGTACX_negctrl_site145],7.28 ± 0.41
14,AAATATTTTATACTTGCACACAAAATATATTAAAAT [CACACA_site8606],8.66 ± 0.29
15,TTTGTTTTTAATTTCGCACACACCTTGTGGAAAAAA [CACACA_site577],8.6 ± 0.4
16,TTCTTATAAATATACACACACAAAATATCTACAATG [CACACA_site6487],7.92 ± 0.38
17,TGTGTAAGATCTTGGATGATGATAAGAATCTACTAG [CACACA_negctrl_site1167],7.59 ± 0.75
18,TTATAAGATTTATGTACACACATATACTCACCTCTA [CACACA_site729],7.92 ± 0.38
19,CCTTAAAATAAGATATGTACGCAAAGGAAAACAAAG [XGTACX_site6057],8.4 ± 0.47
20,TTTGGCTAGTTAGGCCGTACATGTAAATAATATATA [XGTACX_site1138],7.96 ± 0.57
21,TCCATATATGCCTTATGTACATATACCAAATTAACC [XGTACX_site6513],8.26 ± 0.33
22,AATAATAAAGTGAACACACACATATAACATCTATAT [CACACA_site7868],7.7 ± 0.52

row,Sequence,gcPBM binding intensity (ln)
1,AATGAATGTAAGAAAATACACACTAGTATAGTAACA [CACACA_site1955],7.84 ± 0.67
2,TTGGAAAAAGTGAAATGTACATATATATTTATTATT [XGTACX_site6946],7.74 ± 0.55
3,GAAGTTTTTTAAAGATGTACTTTTTAAAAATAATCT [XGTACX_site263],7.75 ± 0.36
4,TATTTTATAAATTAATGTACATAAATTATATCTACT [XGTACX_site3625],7.67 ± 0.27
5,ATTACGATAGAGAAATGTACATATATATATGTAAGT [XGTACX_site1200],7.91 ± 0.54
6,TATATATATAAGATTGTGCACATTAAAATGATAGAA [GTGCAC_site9621],10.695 ± 0.007
7,GATCAAAATTATAGAAGTACTTTATATAAATAAAAT [XGTACX_site8161],7.71 ± 0.38
8,TCTATAAAATATAAAAGTACGTATCAATAATTAAAA [XGTACX_site8469],7.62 ± 0.42
9,TCATAAATACATTTTGCATGTAAAATATAGAATACA [TGCATGCA_site755],7.54 ± 0.62
10,AAGTAAAAAAAAAAAAGTACATGTTTATATAAATAT [XGTACX_site4741],7.75 ± 0.43
11,ATAGAATCTGGTAGCTGTACGAGTCGTAGAGTGTAG [XGTACX_site2016],8.29 ± 0.5
12,ATATATTAAAAGGATTAGGAAAAAATATGATTTATC [TGCATGCA_negctrl_site405],7.55 ± 0.78
13,ATAAATTAACATTAAAGTACATTTTAATAAATATTA [XGTACX_site3647],7.43 ± 0.3
14,ATACATATATATAATACACACATAAATGTAACATTT [CACACA_site3518],8.06 ± 0.49
15,ATCCCCATAAAAAATACACACAAATATTTATACATA [CACACA_site1001],7.87 ± 0.33
16,CCATAAAACTATAATACACACATATAGATTAACATA [CACACA_site7849],7.82 ± 0.33
17,AAAATTGGTGAAAATGAAAATATGATTATATGTATA [XGTACX_negctrl_site505],7.41 ± 0.83
18,TGATAAGAAAAAGACTTTTCCTTCTTACTTTCTATG [CACACA_negctrl_site782],7.57 ± 0.54
19,AATAATGTTTTTATATCACACACAAATATTAAATGA [CACACA_site8074],7.76 ± 0.55
20,CAAAATAAATAATTTGGTACACATAAAAAAAAAAAA [XGTACX_site8380],8.01 ± 0.57
21,AAAAAAAAAACATACACACATACATACATATATATT [CACACA_site949],7.51 ± 0.2
22,ATGAAGAATTTATATTGTACCCATTTTTATGTAAAT [XGTACX_site2528],7.89 ± 0.52
